Among all 45,000 compounds or so, about 65 (0.1%) were called active. Calls come from the whole dose curve; as a rule, active = well fitted activation curve with a large enough effect; inconclusive = small, poorly fitted or top-dose-only effect; inactive = no such curve, though single readings can be large or run the other way. The list shows a part of the results.
Target: Galactocerebrosidase (Homo sapiens) (UniProt P54803)
Experiment: A Novel Cell-Based Assay to Identify Small Molecules for B -Galactocerebrosidase; note: 0% is about no effect; nearly all actives have a fitted effect of over 65% in size
Conditions: 145M-Twi-hGALC-G270D cells (Twitcher mouse brain line with human GALC G270D), HMU-beta-Gal fluorescence, 48 h; series mostly up to 57.5 µM; activation: at the top concentration
Procedure, shortened: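 Brain-derived Twitcher mouse 145M-Twi cells stably expressing human GALC-G270D or wild-type GALC, treated live, then residual GALC activity read by fluorescence of HMU-b-Gal substrate (0.1 mM final) in citrate-phosphate buffer pH 5.2 with sodium taurocholate. Signal increase indicates enhancement.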

UniProt P54803, sequence (P54803 whole entry, looked up): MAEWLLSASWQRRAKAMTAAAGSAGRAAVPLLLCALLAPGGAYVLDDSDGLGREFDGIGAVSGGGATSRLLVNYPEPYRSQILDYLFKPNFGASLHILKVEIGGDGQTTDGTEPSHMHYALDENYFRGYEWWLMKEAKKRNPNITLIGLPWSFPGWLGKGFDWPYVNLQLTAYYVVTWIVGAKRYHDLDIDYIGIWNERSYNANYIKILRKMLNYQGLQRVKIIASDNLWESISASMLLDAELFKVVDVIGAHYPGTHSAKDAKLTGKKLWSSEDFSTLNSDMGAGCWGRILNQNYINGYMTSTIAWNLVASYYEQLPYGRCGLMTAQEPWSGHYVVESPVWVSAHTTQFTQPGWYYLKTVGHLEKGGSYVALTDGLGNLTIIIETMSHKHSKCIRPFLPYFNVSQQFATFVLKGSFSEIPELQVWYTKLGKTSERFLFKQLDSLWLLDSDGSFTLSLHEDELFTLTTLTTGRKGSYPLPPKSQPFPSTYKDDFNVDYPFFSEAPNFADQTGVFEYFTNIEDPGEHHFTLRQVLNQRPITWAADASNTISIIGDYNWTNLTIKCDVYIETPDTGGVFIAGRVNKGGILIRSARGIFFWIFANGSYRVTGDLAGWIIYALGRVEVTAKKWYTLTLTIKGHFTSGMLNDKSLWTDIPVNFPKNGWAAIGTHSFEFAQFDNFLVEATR

activation, inactive:
O=C(CCS(=O)(=O)c1nc(-c2cccs2)cc(C(F)(F)F)n1)Nc1ccc(Br)cc1 -15.3%
Cc1ccc(NC(=O)/C(C#N)=C\c2ccc(-c3ccc(Cl)cc3)o2)c(C)c1 -19.6%
COCCNC(=O)CCCn1c(SCC(=O)c2ccc(F)cc2)nc2c(sc3ccccc32)c1=O -2.15%
CCOc1ccc(-c2c(C)nn3c(C)c(C(=O)Nc4cccc(Cl)c4C)cnc23)cc1OCC -19%
COCCN1Cc2cccc(C(=O)Nc3ccc(C(=O)OC)cc3)c2C1=O 0.498%
Cc1cc2cc(CCNS(=O)(=O)c3ccc(Br)cc3)c(=O)[nH]c2cc1C -44.4%
Cn1c2c(c(=O)n(C)c1=O)C(c1cccc(O)c1)CC(=O)N2 (configuration not stated) -9.61%
COc1cccc(NS(=O)(=O)c2ccc3[nH]c4c(c3c2)CCCCCC4)c1 -19.3%
Cc1cc(Br)cc(C)c1NC(=O)c1cnc2ccccn2c1=O -3.41%
COc1ccc(NC(=O)C(NC(=O)Cc2cccs2)c2ccc(OC)cc2)cc1 (configuration not stated) -10.9%
CCc1ccc(CN(C(=O)c2ccc(OC)cc2)C2CCS(=O)(=O)C2)cc1 (configuration not stated) 1.78%
CCOC(=O)c1ccc(NC(=O)CC2Nc3cccc4cccc(c34)NC2=O)cc1 (configuration not stated) -35.4%
Cc1noc(C)c1S(=O)(=O)Nc1ccc(C(=O)Nc2ccc(C(C)C)cc2)cc1 -7.01%
COc1ccc(-c2onc(C)c2C)cc1S(=O)(=O)N1CCc2ccccc21 0.683%
CCC12CN3CC(CC)(CN(C1)C3c1cccc(OC)c1O)C2=O (configuration not stated) 0.893%
COc1cc2c(cc1NC(=O)COc1ccc(Br)c(C)c1)oc1ccccc12 -12.7%
CCn1c(C(=O)NCc2ccc(C)cc2)cc2sc(Cl)cc21 -11.9%
COc1ccc(-c2nc3ccccc3s2)cc1NC(=O)c1ccc(C#N)cc1F 8.45%
Cc1ccc2nc(N(Cc3cccnc3)C(=O)c3ccco3)sc2c1 -16.6%
COc1ccc(-c2c(C)c3ccc(O)c(CN4CCCCC4)c3oc2=O)cc1OC -16%
CCc1ccc(CNC(=O)c2ccc(CS(=O)c3ccc(Br)cc3)o2)cc1 (configuration not stated) -10.8%
CCc1nnc(SCC(=O)Nc2ccc(Cl)cc2F)c2cc3occc3n12 -19.3%
CCOC(=O)Cn1c(=O)n(-c2ccccc2OC)c2nc(-c3ccccc3)nc(C(N)=O)c21 -1.4%
CCc1ccc(-n2c(SCc3nc(-c4cc(OC)ccc4OC)no3)nnc2-c2ccccc2)cc1 -10.5%
CCOC(=O)c1c(NC(=O)CCCOc2ccc(C)cc2)sc2c1CCC(C)C2 (configuration not stated) -23%
Cc1cccc(N2CCN(C(=O)c3cn(C)c4ccc(S(=O)(=O)N(C)C)cc4c3=O)CC2C)c1 (configuration not stated) -13.1%
CCOc1ccc(S(=O)(=O)NCCc2csc3nc(-c4ccc(OC)c(OC)c4)nn23)cc1 -14.4%

Reference: PubChem BioAssay AID1159614 (National Center for Advancing Translational Sciences (NCATS), 2016)
